Measurements from publication PMC4336329 (PLoS ONE, 2015).
The campaign covered roughly 310,000 compounds. About 2,200 (0.71%) showed an effect of 50% or more. Effects have a minus sign here. This is one part of the list.

Target: human ether-à-go-go-related gene (hERG) potassium channel (human, UniProt Q12809)
Test: primary screen, population patch clamp on CHO cells stably expressing hERG

Sequence of human ether-à-go-go-related gene (hERG) potassium channel (Q12809 whole entry, looked up): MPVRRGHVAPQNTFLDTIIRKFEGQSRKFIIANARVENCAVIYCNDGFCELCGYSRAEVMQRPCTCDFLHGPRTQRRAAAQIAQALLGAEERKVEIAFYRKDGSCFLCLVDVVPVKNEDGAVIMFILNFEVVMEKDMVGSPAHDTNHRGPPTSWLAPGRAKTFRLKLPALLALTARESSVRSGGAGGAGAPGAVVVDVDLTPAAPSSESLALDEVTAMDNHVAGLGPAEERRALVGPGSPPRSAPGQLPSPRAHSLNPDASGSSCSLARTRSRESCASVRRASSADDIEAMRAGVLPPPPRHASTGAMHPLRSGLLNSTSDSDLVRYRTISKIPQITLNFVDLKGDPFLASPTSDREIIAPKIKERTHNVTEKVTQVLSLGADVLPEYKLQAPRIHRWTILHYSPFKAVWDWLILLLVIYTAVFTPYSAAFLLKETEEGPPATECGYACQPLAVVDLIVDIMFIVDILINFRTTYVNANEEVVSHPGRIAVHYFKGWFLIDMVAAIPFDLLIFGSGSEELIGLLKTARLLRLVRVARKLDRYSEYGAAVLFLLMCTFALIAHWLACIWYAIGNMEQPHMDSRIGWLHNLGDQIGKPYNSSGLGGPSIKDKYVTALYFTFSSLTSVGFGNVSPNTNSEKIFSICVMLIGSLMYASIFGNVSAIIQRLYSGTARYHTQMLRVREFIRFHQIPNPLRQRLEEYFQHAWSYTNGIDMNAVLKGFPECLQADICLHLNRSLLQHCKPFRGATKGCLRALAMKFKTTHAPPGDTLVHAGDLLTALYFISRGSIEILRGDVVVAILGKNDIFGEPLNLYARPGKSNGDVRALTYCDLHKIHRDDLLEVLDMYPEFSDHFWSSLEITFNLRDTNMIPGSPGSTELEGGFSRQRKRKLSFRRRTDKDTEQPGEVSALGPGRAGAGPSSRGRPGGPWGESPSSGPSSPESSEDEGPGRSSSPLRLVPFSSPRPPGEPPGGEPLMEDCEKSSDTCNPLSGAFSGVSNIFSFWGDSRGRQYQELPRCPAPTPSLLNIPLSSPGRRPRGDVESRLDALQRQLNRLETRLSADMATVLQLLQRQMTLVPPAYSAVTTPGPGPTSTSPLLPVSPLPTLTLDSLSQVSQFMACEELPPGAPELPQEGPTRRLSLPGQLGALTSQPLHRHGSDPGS

Which “hERG current change (%, negative = inhibition) at 1uM” value does the source give for `CCN(c1ccccc1)S(=O)(=O)c1cc(NC(=O)COC(=O)C2CC2)ccc1Cl` here?
Its value is 8.17%.

Which “hERG current change (%, negative = inhibition) at 1uM” value does the source give for `CC(C)(CSc1ncccn1)NS(=O)(=O)c1ccccc1` here?
The value was 12.9%.

With `Nc1c2c(nc3ccccc13)N(C1CCCCC1)CC2` as the compound, how does the “hERG current change (%, negative = inhibition) at 1uM” value read?
Its value is -16.7%.

How did the “hERG current change (%, negative = inhibition) at 1uM” value turn out when `O=c1oc2ccccc2cc1-c1csc(Nc2nc3c(F)cccc3s2)n1` was run?
The value was 0.573%.

With `COc1ccc(C(C)=O)cc1COC(=O)c1ccc2ccccc2n1` as the compound, how does the “hERG current change (%, negative = inhibition) at 1uM” value read?
The value was 5.79%.

With `N#Cc1cccc(-n2nnnc2-c2ccccn2)c1` as the compound, how does the “hERG current change (%, negative = inhibition) at 1uM” value read?
Its value is 9.31%.

For `Cc1ccc(/C=C/C(=O)NCC2COc3ccccc3O2)o1` (stereo not drawn), which “hERG current change (%, negative = inhibition) at 1uM” value is on record?
Its value is -4.46%.

`O=C(NCC1CCCO1)c1ccccc1-c1nc(-c2ccccc2)no1` (stereo not drawn) was tested. Which “hERG current change (%, negative = inhibition) at 1uM” value did it give?
The value was -9.39%.

For `Cc1cccc(/C(N)=N/OC(=O)C23CC4CC(CC(C4)C2)C3)c1`, which “hERG current change (%, negative = inhibition) at 1uM” value is on record?
Its value is -3.34%.

How did the “hERG current change (%, negative = inhibition) at 1uM” value turn out when `COC(=O)C1=C(CS(=O)(=O)c2ccccc2)NC(=O)NC1c1ccccc1` (stereo not drawn) was run?
The value was 11.4%.

`COP(=O)(OC)C(NC(=O)/C=C/c1ccccc1)C(Cl)(Cl)Cl` (stereo not drawn) was tested. Which “hERG current change (%, negative = inhibition) at 1uM” value did it give?
The value was 12.4%.

Which “hERG current change (%, negative = inhibition) at 1uM” value does the source give for `CC[C@@H](C)C(NC(=O)OC(C)(C)C)c1cn([C@@H](Cc2cc3ccccc3[nH]2)C(=O)N2CCN(C(=O)OC(C)(C)C)CC2)nn1` (stereo partly drawn) here?
Its value is 6.71%.

Which “hERG current change (%, negative = inhibition) at 1uM” value does the source give for `COc1cc(/C=C/C(=O)N2CCCC2)cc(OC)c1OC` here?
The value was -2%.

For `CCOc1ccc(S(=O)(=O)Nc2cccc(C(=O)N3CC(C)OC(C)C3)c2)cc1` (stereo not drawn), which “hERG current change (%, negative = inhibition) at 1uM” value is on record?
Its value is 15.1%.

How did the “hERG current change (%, negative = inhibition) at 1uM” value turn out when `Cc1cccc2c1N(CCOc1ccc(C(C)(C)C)cc1)C(=O)C2=O` was run?
Its value is -3.99%.

For `CCOc1ccc(CNC(=S)N/N=C\c2ccc([N+](=O)[O-])cc2)cc1`, which “hERG current change (%, negative = inhibition) at 1uM” value is on record?
The value was 7.59%.

Which “hERG current change (%, negative = inhibition) at 1uM” value does the source give for `O=C(CSc1nc(=O)n(CCN2CCOCC2)c2c1CCC2)Nc1ccc(OC(F)(F)F)cc1` here?
The value was -40.2%.

`COc1ccc(C2c3[nH]c4ccccc4c3CCN2CCCn2cccn2)c(C)c1C` (stereo not drawn) was tested. Which “hERG current change (%, negative = inhibition) at 1uM” value did it give?
The value was 5.59%.

How did the “hERG current change (%, negative = inhibition) at 1uM” value turn out when `O=C(c1ccc(Cn2cc(Cl)cn2)cc1)N1CCN(c2ccccc2)CC1` was run?
The value was -11.4%.

`O=C(CNC(=O)c1ccccc1)NCc1nc2ccccc2[nH]1` was tested. Which “hERG current change (%, negative = inhibition) at 1uM” value did it give?
Its value is 13%.

How did the “hERG current change (%, negative = inhibition) at 1uM” value turn out when `Cc1c(C(=O)N2CCCCC2)c(S(=O)(=O)Nc2cccc(Br)c2)c(C)n1C` was run?
The value was -2.16%.

`Cc1cccc(N2CCN(S(=O)(=O)c3ccc4c(c3)OCCO4)CC2)c1C` was tested. Which “hERG current change (%, negative = inhibition) at 1uM” value did it give?
The value was -3.64%.

`CCOC(=O)c1sc(NC(=O)c2cccc(S(=O)(=O)N3CCN(C)CC3)c2)cc1C` was tested. Which “hERG current change (%, negative = inhibition) at 1uM” value did it give?
Its value is -0.248%.

With `CCOC(=O)c1c(C)n(CC(O)CN(C)C)c2cc(Br)c(OC)cc12.Cl` (stereo not drawn) as the compound, how does the “hERG current change (%, negative = inhibition) at 1uM” value read?
The value was -9.5%.

`COc1ccc2oc3cc(C)[n+]([O-])c(-c4ccc(Cl)cc4)c3c2c1` was tested. Which “hERG current change (%, negative = inhibition) at 1uM” value did it give?
The value was -0.0212%.

Which “hERG current change (%, negative = inhibition) at 1uM” value does the source give for `COc1ccc(CNc2oc(COc3ccccc3Cl)nc2C#N)cc1` here?
Its value is 4.22%.

With `CC1CN(C(=O)C(C)OC(=O)c2ccc3ncsc3c2)CC(C)O1` (stereo not drawn) as the compound, how does the “hERG current change (%, negative = inhibition) at 1uM” value read?
Its value is 17.9%.

`CC1CN(CCn2cnc3c(N)ncnc32)CC(C)O1` (stereo not drawn) was tested. Which “hERG current change (%, negative = inhibition) at 1uM” value did it give?
Its value is 11.3%.

With `CCOc1cc(/C=C2\NC(=S)N(c3c(C)n(C)n(-c4ccccc4)c3=O)C2=O)ccc1O` as the compound, how does the “hERG current change (%, negative = inhibition) at 1uM” value read?
Its value is -1.6%.

Which “hERG current change (%, negative = inhibition) at 1uM” value does the source give for `O=C(Nc1cccnc1)c1cc(F)c(F)cc1Cl` here?
Its value is 6.27%.

With `CCOc1cc(CNCCCN2CCOCC2)cc(Br)c1OCC(=O)Nc1cccc(C(F)(F)F)c1.Cl` as the compound, how does the “hERG current change (%, negative = inhibition) at 1uM” value read?
The value was -18.8%.

Which “hERG current change (%, negative = inhibition) at 1uM” value does the source give for `CN1C(C(=O)Nc2ccc(OC(F)(F)F)cc2)=CC(c2cccs2)=NS1(=O)=O` here?
The value was 6.6%.

`Cc1ccc(S(=O)(=O)CC(=O)Nc2ccc(F)c(F)c2F)cc1` was tested. Which “hERG current change (%, negative = inhibition) at 1uM” value did it give?
Its value is 14.1%.

With `CC(NC(=O)c1ccc2ccccc2n1)c1ccccc1` (stereo not drawn) as the compound, how does the “hERG current change (%, negative = inhibition) at 1uM” value read?
Its value is 7.53%.

`CC(=O)/C(=N\Nc1ccc(C)cc1)N1CCOCC1` was tested. Which “hERG current change (%, negative = inhibition) at 1uM” value did it give?
Its value is 13%.

For `Cc1cccc(NC(=O)c2cc(=O)n(Cc3ccccc3)c(=O)[nH]2)c1`, which “hERG current change (%, negative = inhibition) at 1uM” value is on record?
The value was 6.93%.

For `COc1cc(C2/C(=C(/O)c3ccc(OCC(C)C)cc3)C(=O)C(=O)N2CCN(C)C)ccc1O` (stereo not drawn), which “hERG current change (%, negative = inhibition) at 1uM” value is on record?
Its value is 5.59%.

`COc1cccc(C(CC(=O)NCc2ccco2)NS(=O)(=O)c2ccc(C)cc2)c1OC` (stereo not drawn) was tested. Which “hERG current change (%, negative = inhibition) at 1uM” value did it give?
Its value is -6.35%.

How did the “hERG current change (%, negative = inhibition) at 1uM” value turn out when `CCOc1ccc(CN2CCC(Cc3ccccc3)CC2)cc1` was run?
Its value is -76.8%.

Which “hERG current change (%, negative = inhibition) at 1uM” value does the source give for `Cc1ccc(C(=O)N2CCN(c3ccccc3Cl)CC2)cc1[N+](=O)[O-]` here?
Its value is 12.9%.

Which “hERG current change (%, negative = inhibition) at 1uM” value does the source give for `O=C(COc1ccccc1)NCC(=O)Nc1cccc(S(=O)(=O)NC2=NCCC2)c1` here?
Its value is -1.23%.

Which “hERG current change (%, negative = inhibition) at 1uM” value does the source give for `Cc1ccc(-n2c(O)c(C=NCCN(C)C)c(=O)[nH]c2=O)cc1` here?
The value was 19.5%.

With `Cc1c(C)n(C)c2ccc(C(=O)Nc3cccc4ccccc34)cc12` as the compound, how does the “hERG current change (%, negative = inhibition) at 1uM” value read?
Its value is 14.6%.

Which “hERG current change (%, negative = inhibition) at 1uM” value does the source give for `O=C(NCc1ccccc1F)C1CCCN1C(=O)NC1CCCCC1` (stereo not drawn) here?
The value was -11.5%.

`COC(=O)C(NNc1ccccc1C)(NC(=O)c1ccc(F)cc1)C(F)(F)F` (stereo not drawn) was tested. Which “hERG current change (%, negative = inhibition) at 1uM” value did it give?
Its value is 9.79%.

With `Cc1nnc(NC(=O)CN2CCN(Cc3ccccc3)CC2)s1` as the compound, how does the “hERG current change (%, negative = inhibition) at 1uM” value read?
Its value is 13.6%.

Which “hERG current change (%, negative = inhibition) at 1uM” value does the source give for `Oc1ccccc1Cc1c(O)ccc2ccccc12` here?
The value was 10.9%.

How did the “hERG current change (%, negative = inhibition) at 1uM” value turn out when `CCc1cccc(CC)c1NC(=S)NCc1ccc2c(c1)OCO2` was run?
Its value is 4.09%.

For `CC(C)[C@H](NC(=O)OC(C)(C)C)C(=O)N/N=C/c1cccc2nccnc12`, which “hERG current change (%, negative = inhibition) at 1uM” value is on record?
The value was -0.153%.

How did the “hERG current change (%, negative = inhibition) at 1uM” value turn out when `COc1ccccc1CCC(=O)Nc1cc(S(=O)(=O)N2CCOCC2)ccc1N1CCCC1` was run?
Its value is -4.33%.

`CCOC(=O)c1ccc(S(=O)(=O)N2CCN(CC(=O)NC(=O)NC(C)(C)C)CC2)cc1` was tested. Which “hERG current change (%, negative = inhibition) at 1uM” value did it give?
The value was 11.2%.

With `O=C(NNS(=O)(=O)c1ccccc1C(F)(F)F)c1cc2ncc(C(F)(F)F)cc2s1` as the compound, how does the “hERG current change (%, negative = inhibition) at 1uM” value read?
Its value is 19.1%.

Which “hERG current change (%, negative = inhibition) at 1uM” value does the source give for `COC(=O)c1ccc2c(c1)N(Cc1ccccc1F)C(=O)c1ccccc1S2=O` (stereo not drawn) here?
The value was 17.3%.

How did the “hERG current change (%, negative = inhibition) at 1uM” value turn out when `O=C(Cc1csc(N2CCOCC2)n1)N/N=C/c1ccc(Cl)cc1Cl` was run?
Its value is -0.0298%.
